Biological target: Mammalian PARP, isolated from Hela cell nuclear extract (Homo sapiens, UniProt P09874)
Test: PARP inhibition assay (FlashPlate, 3H-NAD incorporation), IC50
Type: biochemical
Details: not given
Procedure: In order to assess the inhibitory action of the compounds, the following assay was used to determine IC50 values (Dillon, et al., JBS., 8(3), 347-352 (2003)).
The total assay volume per well was 40 μl.
After 10 minutes incubation at 30° C. the reactions were initiated by the addition of a 10 μl reaction mixture, containing NAD (5 μM), ^3H-NAD and 30 mer double stranded DNA-oligos. Designated positive and negative reaction wells were done in combination with compound wells (unknowns) in order to calculate % enzyme activities. The plates were then shaken for 2 minutes and incubated at 30° C. for 45 minutes.
Following the incubation, the reactions were quenched by the addition of 50 μl 30% acetic acid to each well. The plates were then shaken for 1 hour at room temperature.
The plates were transferred to a TopCount NXT (TRADE MARK) (Packard, UK) for scintillation counting. Values recorded are counts per minute (cpm) following a 30 second counting of each well.
The % enzyme activity for each compound is then calculated using the following equation: […]
Such IC50 values are used as comparative values to identify increased compound potencies.

SMILES | IC50
O=C(c1cc(Cc2n[nH]c(=O)c3ccccc23)ccc1F)N1CCCNCC1 [compound 4, 4-[3-([1,4]diazepane-1-carbonyl)-4-fluorobenzyl]-2H-phthalazin-1-one] | < 10 nM

Same assay, conditions: PARP from Hela cell nuclear extract, NAD 5 μM, 30° C.

SMILES | IC50
O=C(c1cc(Cc2n[nH]c(=O)c3ccccc23)ccc1F)N1CCNCC1 [compound 2, 4-[4-Fluoro-3-(piperazine-1-carbonyl)benzyl]-2H-phthalazin-1-one] | < 10 nM
O=C(c1cccc(Cc2n[nH]c(=O)c3ccccc23)c1)N1CCCNCC1 [compound 3, 4-[3-([1,4]diazepane-1-carbonyl)benzyl]-2H-phthalazin-1-one] | < 10 nM
O=C(c1cccc(Cc2n[nH]c(=O)c3ccccc23)c1)N1CCCN(c2nc3ccc(Cl)cc3s2)CC1 [compound 5, 4-{3-[4-(6-Chlorobenzothiazol-2-yl)-1,4-diazepan-1-ylcarbonyl]benzyl}-1(2H)-phthalazinone] | < 10 nM
CCCc1cnc(N2CCCN(C(=O)c3cccc(Cc4n[nH]c(=O)c5ccccc45)c3)CC2)nc1 [compound 9] | < 10 nM
N#Cc1cccnc1N1CCCN(C(=O)c2cccc(Cc3n[nH]c(=O)c4ccccc34)c2)CC1 [compound 10] | < 10 nM
O=C(c1cccc(Cc2n[nH]c(=O)c3ccccc23)c1)N1CCC(c2nc(-c3ccc(Cl)cc3)no2)CC1 [compound 17] | < 10 nM
COc1ccc(C(=O)C2CCN(C(=O)c3cccc(Cc4n[nH]c(=O)c5ccccc45)c3)CC2)cc1 [compound 18] | < 10 nM
O=C(c1ccccc1)C1CCN(C(=O)c2cccc(Cc3n[nH]c(=O)c4ccccc34)c2)CC1 [compound 19] | < 10 nM
Cc1ccc(C(=O)C2CCN(C(=O)c3cccc(Cc4n[nH]c(=O)c5ccccc45)c3)CC2)cc1 [compound 20] | < 10 nM
O=C(c1cccc(Cc2n[nH]c(=O)c3ccccc23)c1)N1CCC2(CC1)NCCc1c2[nH]c2ccccc12 [compound 24] | < 10 nM
O=C(c1cccc(Cc2n[nH]c(=O)c3ccccc23)c1)N1CCN(c2c([N+](=O)[O-])cc(C(F)(F)F)cc2[N+](=O)[O-])CC1 [compound 26] | < 10 nM
O=C(c1cccc(Cc2n[nH]c(=O)c3ccccc23)c1)N1CCN(c2nc(-c3ccccc3)ns2)CC1 [compound 27] | < 10 nM
O=C(c1cccc(Cc2n[nH]c(=O)c3ccccc23)c1)N1CCN(C(=O)C2COc3ccccc3O2)CC1 (stereo not shown) [compound 28] | < 10 nM
O=C(c1cccc(Cc2n[nH]c(=O)c3ccccc23)c1)N1CCN(C(=O)C2CCCCC2)CC1 [compound 30] | < 10 nM
O=C(c1cccc(Cc2n[nH]c(=O)c3ccccc23)c1)N1CCCN(c2ncccc2[N+](=O)[O-])CC1 [compound 32] | < 10 nM
O=C(c1cccc(Cc2n[nH]c(=O)c3ccccc23)c1)N1CCCN(c2ccc(C(F)(F)F)cc2[N+](=O)[O-])CC1 [compound 33] | < 10 nM
O=C(c1cccc(Cc2n[nH]c(=O)c3ccccc23)c1)N1CCCN(c2ccc([N+](=O)[O-])cn2)CC1 [compound 34] | < 10 nM
O=C(c1cccc(Cc2n[nH]c(=O)c3ccccc23)c1)N1CCC(C(=O)N(Cc2ccccc2)Cc2ccccc2)CC1 [compound 35] | < 10 nM
O=C(c1cccc(Cc2n[nH]c(=O)c3ccccc23)c1)N1CCN(S(=O)(=O)c2ccccc2Cl)CC1 [compound 61] | < 10 nM
Cc1nn(C)c(Cl)c1S(=O)(=O)N1CCN(C(=O)c2cccc(Cc3n[nH]c(=O)c4ccccc34)c2)CC1 [compound 62] | < 10 nM
Cc1cc(C)c(S(=O)(=O)N2CCN(C(=O)c3cccc(Cc4n[nH]c(=O)c5ccccc45)c3)CC2)c(C)c1 [compound 63] | < 10 nM
O=C(c1cccc(Cc2n[nH]c(=O)c3ccccc23)c1)N1CCN(C(=O)c2ccc(F)cc2Cl)CC1 [compound 68] | < 10 nM
O=C(CCSc1nc2ccccc2s1)N1CCN(C(=O)c2cccc(Cc3n[nH]c(=O)c4ccccc34)c2)CC1 [compound 88] | < 10 nM
Cn1c(CCCC(=O)N2CCN(C(=O)c3cccc(Cc4n[nH]c(=O)c5ccccc45)c3)CC2)cc2ccccc2c1=O [compound 90] | < 10 nM
